Data from the supplement of paper PMC3334620.
Whole data set: some 33,000 sequences, median “E-score (-0.5 to 0.5)” near -0.035, cut for the highest 2% near 0.35. Some of the results follow.

What follows are sequences tested against T1, Pdr3 (UniProt P33200) (assay: PBM E-score (8-mer binding enrichment) (E-score (-0.5 to 0.5)); higher = stronger / more preferred TF binding; most listed sequences are background and not binding sites). Details: protein concentration: 200 nM; construct: GST-full length.
T1 sequence: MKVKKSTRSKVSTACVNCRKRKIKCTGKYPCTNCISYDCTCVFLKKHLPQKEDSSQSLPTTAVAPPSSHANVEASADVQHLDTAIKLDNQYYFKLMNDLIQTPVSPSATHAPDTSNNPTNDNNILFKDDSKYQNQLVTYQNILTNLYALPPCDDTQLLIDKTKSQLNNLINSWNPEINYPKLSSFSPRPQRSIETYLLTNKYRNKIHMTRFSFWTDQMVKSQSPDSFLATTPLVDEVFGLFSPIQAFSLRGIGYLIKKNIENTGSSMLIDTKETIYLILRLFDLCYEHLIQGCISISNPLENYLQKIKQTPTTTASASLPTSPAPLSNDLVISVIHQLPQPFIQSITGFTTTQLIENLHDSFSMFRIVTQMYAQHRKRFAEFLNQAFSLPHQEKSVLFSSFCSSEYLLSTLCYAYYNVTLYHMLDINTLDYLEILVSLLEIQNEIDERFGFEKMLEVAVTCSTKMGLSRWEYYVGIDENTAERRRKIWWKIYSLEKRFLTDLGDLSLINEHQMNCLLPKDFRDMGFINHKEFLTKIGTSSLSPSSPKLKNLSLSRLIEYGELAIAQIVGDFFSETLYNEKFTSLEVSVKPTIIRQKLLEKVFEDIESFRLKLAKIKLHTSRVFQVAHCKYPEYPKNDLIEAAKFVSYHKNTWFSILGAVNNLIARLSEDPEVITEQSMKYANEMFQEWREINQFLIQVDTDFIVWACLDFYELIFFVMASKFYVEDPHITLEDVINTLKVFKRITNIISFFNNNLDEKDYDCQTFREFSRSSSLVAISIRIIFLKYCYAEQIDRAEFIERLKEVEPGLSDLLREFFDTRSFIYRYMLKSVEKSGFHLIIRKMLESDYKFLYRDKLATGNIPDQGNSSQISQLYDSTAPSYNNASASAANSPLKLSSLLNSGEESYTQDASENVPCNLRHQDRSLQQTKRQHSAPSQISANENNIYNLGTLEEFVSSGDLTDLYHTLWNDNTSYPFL
Summary of the method: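 Yeast transcription factors, full-length or as DNA-binding domains, were expressed with a GST tag using PURExpress in vitro transcription/translation. At about 100-200 nM they were applied to universal all-10-mer Agilent arrays, double-stranded by primer extension on fresh or once-stripped slides. Fluorescent anti-GST detected bound protein, and masliner normalised the scans. E-scores for ungapped eight-base words, pooled with reverse complements, came from the Universal PBM Analysis Suite.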

Sequence	PBM E-score
AGTAATGC	0.0152
AACCGAGA	0.155
ATCCTCTA	-0.111
GGTAAGAA	-0.155
ATTTTCAG	0.0218
TCGACAAA	0.131
GCTAGCCC	-0.209
CATATCAA	0.0688
GGCCCCAA	-0.0586
CGCTAGGC	-0.135
AAGATAGA	-0.184
CAGGTATA	-0.149
ACTTGCGG	0.0614
ACCAGCTG	-0.149
TACGTACA	-0.179
AAGTCAGG	-0.117
CCTTATCG	0.0198
GCTTCGCC	-0.18
AGGTACGC	0.0437
AGCCGAAT	0.234
AACGCTGG	0.0348
ACGTATTC	0.0428
CCATAGGA	-0.22
TCCAGGAA	-0.0386
AAATTCAG	0.0296

Sequence	PBM E-score
CACCCAAA	0.0157
ACCAATAA	-0.0282
CTGCGTAA	-0.211
CTTTTGCA	-0.194
TCCCCTAA	-0.0508
TCGCAAGA	-0.238
CTTGACGC	-0.0608
GTCGGAGA	0.173
ACTGCTGC	-0.00041
ATCCAGAG	0.0157
GTGCAAAA	-0.168
AGTCAGCG	-0.192
GAACCACC	0.155
CAGCTCCA	-0.0374
AATACAAG	0.133
CCGCCCCC	0.0913
CTCGAAAC	-0.00842
CAAACAGG	-0.112
CAGCGGGC	0.0194
CTGTGGGA	-0.133
GCGATAGC	-0.134
TAGAGAAA	-0.0506
CTAATTTC	0.173
CAAATACA	-0.11
GCTTCATA	0.101

Sequence	PBM E-score
AAGCAAAA	-0.0927
CACACGGG	0.148
GGGACTCA	-0.205
TCGCACGA	-0.0634
CAGATTCG	-0.0961
CCAGACCC	-0.036
ACCAGATG	-0.102
CCGAGGGA	0.173
CGGGCCCC	0.265
GGTGACAC	0.0232
AGGCGCCA	0.0712
AAAAACTT	-0.241
CCTGCTCC	0.0627
AATCATGA	0.0638
TCAAGACA	-0.0323
AGTTTGGC	-0.0217
AATAAAAG	-0.0835
CCAAGTCA	-0.0909
GCCGCGGC	0.484
AACGCACA	0.0807
ATCATGGA	-0.156
CGAGAAAG	0.0361
AAGTTTGC	-0.00571
CGAGCAGA	-0.0147
AACTCGTA	-0.111

Sequence	PBM E-score
CGCTCTGC	0.0417
ATTTCCTC	0.154
CATAGCGG	0.128
CCTCCCCG	0.207
TAACCGCA	0.0667
AGGAATTA	-0.091
CGATCAAA	-0.0395
ATGCTTGG	-0.295
CTACGAGA	-0.0976
ATCGATCC	0.101
CATGCGCG	0.127
AAGAAGTC	-0.00838
AGAAGAGA	-0.233
ATTTTTCA	0.0666
GCGACCGA	0.0546
AACTTCCC	0.0171
GGGTTAAA	0.0457
AATGGAGC	-0.0307
GGTCCGAC	0.269
CAGTTTCG	-0.0271
CTTCTGTA	-0.135
AACGCGTC	0.0596
AAAACATC	-0.128
CAACAGAG	-0.0573
GCGAAATA	0.0781

Sequence	PBM E-score
CCATACCC	0.0565
CGGAGACA	0.327
CTGTGGGC	-0.105
GGCACCGA	0.0414
AGGAGGGC	-0.166
CTGGGAGC	-0.192
CCATTCCA	0.0798
ACCCTTAT	-0.181
CCCCCGGA	0.311
AATCGCGC	0.247
AAAATTCG	0.0531
CGCGGTGA	0.176
GAAGCAAC	0.0104
AAACGAAA	0.0527
AAGCTCAG	-0.171
TAAGCTCA	-0.11
CGTTTGAG	-0.0857
CCACACGA	-0.228
GAACTTCC	0.241
AGATATCA	0.0104
TGGTATAA	0.00154
CATAACGC	-0.102
CATAGCGC	0.165
GATATACC	0.132
AAACTTCC	0.0751

Sequence	PBM E-score
AACGCGTT	0.14
GTTCCCCA	-0.173
TAGGAACA	-0.0452
GATGTGAA	-0.0111
GATTCAAA	-0.124
CATCCCAC	-0.0306
ACTAATGG	0.0371
GATAGTGC	-0.0798
CGGCGCCA	0.171
ACGCCCCG	0.181
CCTGACAC	-0.0728
CAGAGCCG	0.0998
ATACCTAG	-0.0445
AAGAGGAG	-0.0754
AGTGTGTA	-0.121
GAGTTATC	0.159
CACCTTTA	0.0126
GTAATTGA	0.0657
GATTTACC	0.158
CTAGCTAC	-0.233
ATGGCAAT	-0.00119
GACCGGGA	0.304
AATGTCCA	-0.11
CAAATTCA	-0.0277
AACAAGCT	0.0568

Sequence	PBM E-score
GTTTGGGA	-0.013
ACACCACT	0.108
CCACCCGC	0.296
AGCACTGG	-0.111
CCACTGAG	-0.158
GATCCAAA	0.064
TACTACTA	0.141
AGCTCACC	-0.0527
AGTCCGAG	0.281
ACAACCAT	0.149
ACACTCGT	-0.195
CTCATCTA	-0.185
TACCGGGA	0.347
AGTACAGA	-0.0546
AACATTAA	-0.0603
CGAATCAG	-0.133
ACCGCATC	0.198
CGCGATTC	0.254
AGATCACC	0.0531
GACTCTTA	-0.135
CCCTGAAC	-0.013
CTCTGAGA	-0.238
